This is an account of results in PubChem BioAssay AID463173 (ICCB-Longwood Screening Facility, Harvard Medical School, 2010).

Hit rate of the full screen: of about 52,000 compounds, about 4,300 (8.3%) were called active. Rule as the data show it: active = survival mostly below about 52% (no sharp cut-off); inactive = mostly above about 56%. The list shows a part of the results.

The test system of the assay is DeltatarO mutant. As to the kind of experiment: growth inhibition of S. aureus wild type versus tarO mutant, primary screen, teichoic acid synthesis inhibitors, RN4220, OD600 (AID 463173). As to conditions: OD600, 18 h, hits give low values, screened at 18.75 µg/mL (by protocol).
Turning to `Clc1ccc(Nc2c(-c3cccs3)nc3ccc(Cl)cn23)cc1`, the survival was inactive: 93%. Regarding `COc1ccc(CCNC(=O)Cn2c(=O)cc(C(F)(F)F)c3c(C)nn(C)c32)cc1OC`, the survival is inactive: 78%. Turning to `CCOC(=O)c1c(C)oc2nc(C)nc(N(CC(C)C)CC(C)C)c12`, the survival was inactive: 99%. The result for `Cc1c(Cl)cccc1NC(=O)c1ccc2c(c1)nnn2C1CCCC1` reads inactive: 108%; that for `O=C(NCCCN1CCN(c2ccc(F)cc2)CC1)C1COc2ccccc2C1` (centres undefined), inactive: 55%. `CCc1ccc(NC(=O)c2ccc3c(=O)n4nc(Nc5ccccc5C)sc4nc3c2)cc1`: the survival was inactive: 76%. The result for `O=C(Nc1ccccc1C(=O)OCc1cc(=O)n2c3c(sc2n1)CCCC3)c1ccccc1` reads inactive: 107%; that for `O=C(CCS(=O)(=O)c1ccccc1)N(Cc1cccnc1)c1nc2c(Cl)cccc2s1`, inactive: 84%; that for `Cc1cc(C)c2[nH]c(=O)c(CN(C(=O)Nc3ccccc3F)C3CC3)cc2c1`, inactive: 69%. The same measure for `C=CCc1c(C)nc2nc(SCC(=O)Nc3cccc(Cl)c3)nn2c1C`: inactive: 102%. As to `Cc1cccc(Nc2nc3nonc3nc2Nc2cccc(C)c2C)c1C`, the survival was inactive: 66%.

Turning to `CC(C)CN(CC(C)C)c1nc(-c2ccc(Cl)cc2)nc2ccccc12`, the survival is active: -1%. Take `Cc1ccc(NCc2nnc(SCC(=O)N3c4ccccc4CCc4ccccc43)o2)c(C)c1`: the survival was inactive: 120%. In the case of `CCCC(c1nnnn1CC1CCCO1)N(Cc1cccs1)Cc1cc2ccc(C)c(C)c2[nH]c1=O` (centres undefined), the survival was inactive: 71%.

Consider `Cc1ccc(NC(=O)N2CC3CCCN3c3ccccc32)cc1C` (centres undefined), for which the survival was active: -4%. The result for `COc1ccccc1CCNC(=O)C(=O)NCC(c1ccco1)S(=O)(=O)c1cccs1` (centres undefined) reads inactive: 81%; that for `COc1ccc(C(=O)Nc2ccc(NC(=O)c3cccs3)cc2)cc1OC`, inactive: 72%; that for `Cc1cccc(C(=O)NCC(c2cccs2)S(=O)(=O)c2cccs2)c1` (centres undefined), inactive: 81%. The same measure for `CCOC(=O)c1c(C)[nH]c(C)c1S(=O)(=O)N1CCCC(C(=O)Nc2ncccc2C)C1` (centres undefined): inactive: 83%.

As to `Cc1oc(-c2ccc(C(=O)NCCC(C)C)cc2)nc1CS(=O)(=O)c1ccccc1`, the survival was inactive: 102%. The result for `CC(C)CCn1c(=O)c2cccnc2n(CC(=O)Nc2ccccc2)c1=O` reads inactive: 72%. `N#Cc1c[nH]n2c(NC3CCCC3)c(-c3cccc(Br)c3)nc12`: the survival was inactive: 45%.

Regarding `COC(=O)c1sccc1S(=O)(=O)N(CC(=O)NCc1ccc(C)cc1)c1ccccc1`, the survival is inactive: 84%.

On to `OC(C#CCN1CCOCC1)(c1ccccc1)c1ccccc1`, for which the survival was inactive: 95%.

Turning to `CC1CCN(S(=O)(=O)c2ccc3c(c2)CCN3C(=O)Nc2cccc(Br)c2)CC1`, the survival is inactive: 92%. The same measure for `Cc1ccc(S(=O)(=O)NC2(C(F)(F)F)NC(=O)N(c3ccc(F)cc3)C2=O)cc1` (centres undefined): inactive: 70%. As for `CCOCCc1nn2c(=O)cc(COC(=O)c3ccccc3NC(=O)c3ccccc3F)nc2s1`, the survival is inactive: 80%. Take `CCOC(=O)c1ccc(CN(Cc2ccc(C)cc2)S(=O)(=O)c2ccc(F)c(C(=O)Nc3ccc(C)c(F)c3)c2)cc1`: the survival is inactive: 70%. Regarding `CCOc1ccc(C(=O)c2cn(CC(=O)Nc3ccc(OC)cc3)c3cc4c(cc3c2=O)OCO4)cc1`, the survival is inactive: 69%. Regarding `CC(=O)Oc1ccc(Nc2nc3nonc3nc2Nc2ccccc2)cc1`, the survival was inactive: 83%. `O=C(NCC(c1ccc2c(c1)OCO2)N1CCN(c2ccccc2)CC1)C(=O)Nc1ccc(F)cc1` (centres undefined): the survival was inactive: 76%.

Turning to `CCOC(=O)Cc1cc(C(=O)Nc2ccc(Br)cc2)sc1-c1ccc(C)cc1`, the survival is inactive: 110%. Regarding `Cc1cccc(C)c1NC(=O)Cn1c(=O)n(Cc2ccc(C(=O)NCc3ccco3)cc2)c(=O)c2sccc21`, the survival is inactive: 59%. Take `CCOCCCn1c(=N)c(C(=O)NC(C)c2ccccc2)cc2c(=O)n3cc(C)ccc3nc21` (centres undefined): the survival is inactive: 64%. On to `Cc1ccn2c(NC(=O)c3cccc(Cl)c3)c(-c3ccccc3)nc2c1`, for which the survival was inactive: 65%.

Consider `CCCC(=O)N1CCc2cc(OC)c(OC)cc2C1COc1ccccc1OC` (centres undefined), for which the survival was inactive: 49%. The same measure for `CCc1ccc(CNc2ncc(-c3cccc(OC)c3)n2C)cc1`: active: 8%; for `CCCSc1ncc(Cl)c(C(=O)Nc2ccc(S(=O)(=O)N3CCCC(C)C3)cc2)n1` (centres undefined): inactive: 56%; for `CCc1nnc(SCc2nc(-c3ccccc3Cl)oc2C)c2cc3sc(C)cc3n12`: inactive: 81%. The same measure for `O=C(Nc1nc2c(F)cccc2s1)c1ccc(S(=O)(=O)N2CCOCC2)cc1`: inactive: 103%; for `COc1ccc2[nH]cc(CCNC(=O)Nc3ccccc3)c2c1`: inactive: 86%. The result for `Cc1ccc(NC(=O)CN2C(=O)c3cccnc3Sc3ccccc32)cc1C` reads inactive: 83%; that for `COc1ccc(CN(C(=O)c2ccccc2F)C2CCS(=O)(=O)C2)cc1` (centres undefined), inactive: 75%. Consider `O=C(NCC1CCCO1)C1CC(c2ccccc2O)=NO1` (centres undefined), for which the survival was inactive: 91%. As to `Cc1cc(C)cc(OCC(=O)Nc2nonc2-c2ccc(Br)cc2)c1`, the survival was inactive: 107%. Take `Cc1ccc2c(Sc3ccc(Cl)cc3)c(C(=O)NCCC(C)C)[nH]c2c1`: the survival was inactive: 80%. For `Cc1cccc(N2CCN(C(=O)c3ccc4nc(N5CCC(C)CC5)sc4c3)CC2)c1C`, the survival was active: 1%. For `COc1ccc(CN(Cc2ccco2)C(=O)COc2ccc(Cl)cc2C)cc1`, the survival is inactive: 71%.

As to `CCOC(=O)c1c(S(=O)(=O)N2CCCC(C(=O)NCc3ccc(F)cc3)C2)c(C)n(CC)c1C` (centres undefined), the survival was inactive: 86%. Turning to `Cc1ccc2c(c1)cc1c(=O)n(CC(=O)N(C)c3ccccc3)nc(C)n12`, the survival is inactive: 129%. For the compound `CC(=O)N1CCc2c(sc3c2c(=O)n(-c2cccc(Cl)c2C)c(=O)n3Cc2ccccc2C)C1`, the survival is inactive: 61%.

Take `CCOC(=O)/C(C#N)=C\c1ccc(-c2cccc(C(F)(F)F)c2)o1`: the survival is inactive: 84%.

With `O=C(CCCCn1c(=O)[nH]c2ccsc2c1=O)N1CCN(c2cccc(C(F)(F)F)c2)CC1`, the survival was inactive: 51%.

`COc1ccc(NC(=O)Cn2cc(S(=O)(=O)N3CCC(C)CC3)c3ccccc3c2=O)cc1Cl`: the survival was inactive: 95%.

In the case of `COc1ccc2c(c1)c1c(c(=O)n(-c3ccc(C)cc3)c(=O)n1CC(=O)c1ccc(Cl)cc1)n2C`, the survival was inactive: 81%.

In the case of `CN(C)C(=O)CSc1n[nH]c(-c2ccccc2)n1`, the survival was inactive: 103%.

Take `Cc1ccc(C)c(CNS(=O)(=O)c2ccc3c(c2)C(C)(C)C(=O)N3C)c1`: the survival was inactive: 84%. The same measure for `CC1CCN(S(=O)(=O)c2ccc3c(c2)N(CC(=O)NCCN(C)C)C(=O)CO3)CC1`: inactive: 99%; for `Cc1ccccc1C(=O)Nc1cccc(OCc2cc(=O)n3c4c(sc3n2)CCCC4)c1`: inactive: 101%. In the case of `CCOc1ccc(NC(=O)c2ccc3[nH]c(C)cc(=O)c3c2)cc1`, the survival is inactive: 79%. The result for `COc1cccc(CNS(=O)(=O)c2ccc3[nH]c4c(c3c2)CCCCC4)c1` reads inactive: 71%.

Consider `Cc1ccc(C)c(N2CCN(C(=O)c3ccc(-c4nc(COc5ccccc5)c(C)o4)cc3)CC2)c1`, for which the survival is inactive: 86%.

For `COc1ccc2c(CNCCc3ccccc3C)c(C(=O)O)n(Cc3ccccc3C)c2c1`, the survival was inactive: 85%. The result for `COc1ccc(CNC(=O)C2CCCN(S(=O)(=O)N(C)c3ccc(F)cc3)C2)cc1OC` (centres undefined) reads inactive: 85%.

Take `O=C(OCc1cc(=O)n2nc(-c3cccs3)sc2n1)c1cccc(Cl)c1`: the survival is inactive: 54%. The result for `CCOC(=O)c1cccc(NC(=O)c2ccc3c(c2)nnn3CC)c1` reads inactive: 66%. The result for `COc1cccc(-c2nnc(SCC(=O)N3CCCCC3)o2)c1` reads inactive: 98%; that for `COC(=O)C1C2C=CC3(CN(Cc4ccco4)C(=O)C13)O2` (centres undefined), inactive: 81%; that for `Cc1oc2c(c1C(=O)Nc1ccc(F)c(F)c1)C1=NCCN1C=N2`, inactive: 94%. `CC1(C)Cc2nc3sc(C(=O)NN)c(N)c3cc2CO1`: the survival is inactive: 97%. The result for `CCc1cccc(CC)c1NC(=O)CCS(=O)(=O)c1ccc(Br)s1` reads inactive: 69%; that for `Cn1cc(-c2cc3n(n2)CCC(=O)N3CCCC(=O)NCc2ccc(F)cc2)c2ccccc21`, inactive: 88%; that for `COc1ccc2[nH]cc(NC(=O)N3CCN(C)CC3)c(=O)c2c1`, inactive: 100%. Turning to `CCOC(=O)c1ccccc1Nc1nc2ccc(C)cc2n2nnnc12`, the survival was inactive: 78%. Consider `Cc1cccc(C)c1NC(=O)c1nc(S(C)(=O)=O)ncc1N(Cc1ccc(C(C)(C)C)cc1)Cc1ccco1`, for which the survival is inactive: 49%. The same measure for `O=C(CCSc1nnc(-c2ccncc2)o1)Nc1ccccc1`: inactive: 74%; for `CCOc1ccc(NC(=O)c2oc3ccccc3c2NC(=O)C2CCCCC2)cc1`: inactive: 103%.

Turning to `Cc1ccc(NC(=O)Cn2c(=O)c(C(F)(F)F)nc3ccccc32)cc1C`, the survival was inactive: 60%. The result for `CCOC(=O)c1ccccc1NC(=O)Cn1nnc2sc3c(c2c1=O)CCCC3` reads inactive: 63%. On to `Cc1ccc(C(C(=O)NC2CCCCC2)N(C)Cc2ccccc2)cc1` (centres undefined), for which the survival is active: -3%. As for `Cc1ccc2oc3c(c(=O)c2c1)C(c1ccccc1F)N(c1ccccn1)C3=O` (centres undefined), the survival was inactive: 81%. In the case of `CC(=O)Nc1ccc(-c2csc(N)n2)cc1`, the survival was inactive: 90%.

In the case of `COc1ccc(Cn2ccnc2SCC(=O)Nc2ccc3c(c2)OCO3)cc1`, the survival was inactive: 88%.

`COc1ccc(-c2cc(C(F)(F)F)n3nc(C(=O)Nc4cc(C(F)(F)F)ccc4Cl)cc3n2)cc1OC`: the survival was inactive: 152%. `CCN1CCN(Cc2c(O)ccc3oc(C)c(C(=O)Nc4ccc(OC)cc4)c23)CC1`: the survival was inactive: 78%.

Take `FC(F)(F)Sc1ccc2noc(-c3ccccc3)c2c1`: the survival is inactive: 91%. As for `Cc1ccc(NC(=O)CSc2nc3nc(C)c(Cc4ccccc4)c(C)n3n2)cc1`, the survival is inactive: 60%. The result for `CC(C)CNC(=O)N1CCN(S(=O)(=O)c2ccc3c(ccn3C)c2)CC1` reads inactive: 80%. With `CCOC(=O)N1CCN(c2ncc3c(n2)CC(c2ccc(OC)c(OC)c2)CC3=O)CC1` (centres undefined), the survival was inactive: 81%.
